Experimental data as given in the supplement of paper PMC8728848.
The other results are listed elsewhere or left out.

Experiments:
Experiment in all cases: glycan array binding signal (z-score within array); higher = stronger binding
Details in all cases: glycan notation: IUPAC condensed, linker removed
Gal(a1-3)Gal = molecular target: Gal(a1-3)Gal
In short: (§1)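 Glycan array data came from 3228 arrays in the Consortium for Functional Glycomics database, and only arrays with an available protein sequence were kept. Glycan names were put into IUPAC-condensed notation, and columns mapping to the same glycan were averaged. The binding signal is a within-array Z-score, averaged across arrays of one protein sequence run at different concentrations or buffers and across linkers. A negative Z-score can be read as non-binding.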

Gal(a1-3)Gal(b1-3)GlcNAc = molecular target: Gal(a1-3)Gal(b1-3)GlcNAc
In short: as §1

[1] = molecular target: Gal(a1-3)Gal(b1-3)GlcNAc(b1-2)Man
In short: as §1

[2] = molecular target: Gal(a1-3)Gal(b1-3)GlcNAc(b1-2)Man(a1-3)[Gal(a1-3)Gal(b1-3)GlcNAc(b1-2)Man(a1-6)]Man(b1-4)GlcNAc(b1-4)GlcNAc
In short: as §1

[3] = molecular target: Gal(a1-3)Gal(b1-3)GlcNAc(b1-3)GalNAc
In short: as §1

[4] = molecular target: Gal(a1-3)Gal(b1-3)GlcNAc(b1-6)GalNAc
In short: as §1

[5] = molecular target: Gal(a1-3)Gal(b1-3)[Fuc(a1-4)]GlcNAc(b1-2)Man(a1-3)[Gal(a1-3)Gal(b1-3)[Fuc(a1-4)]GlcNAc(b1-2)Man(a1-6)]Man(b1-4)GlcNAc(b1-4)GlcNAc
In short: as §1

Gal(a1-3)Gal(b1-4)Glc = molecular target: Gal(a1-3)Gal(b1-4)Glc
In short: as §1

Gal(a1-3)Gal(b1-4)GlcNAc = molecular target: Gal(a1-3)Gal(b1-4)GlcNAc
In short: as §1

[6] = molecular target: Gal(a1-3)Gal(b1-4)GlcNAc(b1-2)Man
In short: as §1

[7] = molecular target: Gal(a1-3)Gal(b1-4)GlcNAc(b1-2)Man(a1-3)[Gal(a1-3)Gal(b1-4)GlcNAc(b1-2)Man(a1-6)]Man(b1-4)GlcNAc(b1-4)GlcNAc
In short: as §1

[8] = molecular target: Gal(a1-3)Gal(b1-4)GlcNAc(b1-3)GalNAc
In short: as §1

[9] = molecular target: Gal(a1-3)Gal(b1-4)GlcNAc(b1-6)GalNAc
In short: as §1

[10] = molecular target: Gal(a1-3)Gal(b1-4)[Fuc(a1-3)]GlcNAc
In short: as §1

[11] = molecular target: Gal(a1-3)Gal(b1-4)[Fuc(a1-3)]GlcNAc(b1-2)Man(a1-3)[Gal(a1-3)Gal(b1-4)[Fuc(a1-3)]GlcNAc(b1-2)Man(a1-6)]Man(b1-4)GlcNAc(b1-4)GlcNAc
In short: as §1

Gal(a1-3)GalNAc = molecular target: Gal(a1-3)GalNAc
In short: as §1

[12] = molecular target: Gal(a1-3)[Gal(a1-4)]Gal(b1-4)GlcNAc
In short: as §1

[13] = molecular target: Gal(a1-4)Gal(b1-3)GlcNAc(b1-2)Man(a1-3)[Gal(a1-4)Gal(b1-3)GlcNAc(b1-2)Man(a1-6)]Man(b1-4)GlcNAc(b1-4)GlcNAc
In short: as §1

Gal(a1-4)Gal(b1-4)Glc = molecular target: Gal(a1-4)Gal(b1-4)Glc
In short: as §1

Gal(a1-4)Gal(b1-4)GlcNAc = molecular target: Gal(a1-4)Gal(b1-4)GlcNAc
In short: as §1

[14] = molecular target: Gal(a1-4)Gal(b1-4)GlcNAc(b1-2)Man(a1-3)[Gal(a1-4)Gal(b1-4)GlcNAc(b1-2)Man(a1-6)]Man(b1-4)GlcNAc(b1-4)GlcNAc
In short: as §1

[15] = molecular target: Gal(a1-4)Gal(b1-4)GlcNAc(b1-3)Gal(b1-4)Glc
In short: as §1

Gal(a1-4)GlcNAc = molecular target: Gal(a1-4)GlcNAc
In short: as §1

Gal(a1-6)Glc = molecular target: Gal(a1-6)Glc
In short: as §1

Gal(b1-2)Gal = molecular target: Gal(b1-2)Gal
In short: as §1

Gal(b1-3)Gal = molecular target: Gal(b1-3)Gal
In short: as §1

Gal(b1-3)Gal(b1-4)GlcNAc = molecular target: Gal(b1-3)Gal(b1-4)GlcNAc
In short: as §1

Gal(b1-3)GalNAc = molecular target: Gal(b1-3)GalNAc
In short: as §1

[16] = molecular target: Gal(b1-3)GalNAc(a1-3)[Fuc(a1-2)]Gal(b1-4)Glc
In short: as §1

[17] = molecular target: Gal(b1-3)GalNAc(a1-3)[Fuc(a1-2)]Gal(b1-4)GlcNAc
In short: as §1

Gal(b1-3)GalNAc(b1-3)Gal = molecular target: Gal(b1-3)GalNAc(b1-3)Gal
In short: as §1

[18] = molecular target: Gal(b1-3)GalNAc(b1-3)Gal(a1-4)Gal(b1-4)Glc
In short: as §1

[19] = molecular target: Gal(b1-3)GalNAc(b1-4)Gal(b1-4)Glc
In short: as §1

[20] = molecular target: Gal(b1-3)GalNAc(b1-4)[Neu5Ac(a2-3)]Gal(b1-4)Glc
In short: as §1

Gal(b1-3)GlcNAc = molecular target: Gal(b1-3)GlcNAc
In short: as §1

[21] = molecular target: Gal(b1-3)GlcNAc(a1-3)Gal(b1-4)GlcNAc
In short: as §1

[22] = molecular target: Gal(b1-3)GlcNAc(a1-6)Gal(b1-4)GlcNAc
In short: as §1

Gal(b1-3)GlcNAc(b1-2)Man = molecular target: Gal(b1-3)GlcNAc(b1-2)Man
In short: as §1

B1: CAA (Caragana arborescens) (protein)
chain: VAVEFDTFDNPDWDPRTKHIGIDVNSIRSNKTTQWGFWNRQVADVDISYEASSKTLNVSLYYPGESYIVTDVVDLKDILPEWVRIGF
How did the “glycan array binding signal (z-score)” value (Gal(a1-3)Gal) turn out when B1 was run?
Its value is -0.238.

What about the “glycan array binding signal (z-score)” value (Gal(a1-3)Gal(b1-3)GlcNAc) of the same binder?
Its value is -0.242.

And the “glycan array binding signal (z-score)” value [1]?
Its value is -0.245.

What about the “glycan array binding signal (z-score)” value [2] of the same binder?
Its value is 0.745.

And the “glycan array binding signal (z-score)” value [3]?
Its value is -0.241.

What about the “glycan array binding signal (z-score)” value [4] of the same binder?
The value was -0.254.

What about the “glycan array binding signal (z-score)” value [5] of the same binder?
The value was 0.701.

And the “glycan array binding signal (z-score)” value (Gal(a1-3)Gal(b1-4)Glc)?
Its value is -0.246.

What about the “glycan array binding signal (z-score)” value (Gal(a1-3)Gal(b1-4)GlcNAc) of the same binder?
The value was -0.238.

And the “glycan array binding signal (z-score)” value [6]?
Its value is -0.241.

And the “glycan array binding signal (z-score)” value [7]?
The value was 0.634.

And the “glycan array binding signal (z-score)” value [8]?
Its value is -0.243.

What about the “glycan array binding signal (z-score)” value [9] of the same binder?
Its value is -0.238.

What about the “glycan array binding signal (z-score)” value [10] of the same binder?
Its value is -0.236.

What about the “glycan array binding signal (z-score)” value [11] of the same binder?
The value was -0.102.

And the “glycan array binding signal (z-score)” value (Gal(a1-3)GalNAc)?
The value was -0.242.

What about the “glycan array binding signal (z-score)” value [12] of the same binder?
Its value is -0.248.

And the “glycan array binding signal (z-score)” value [13]?
The value was 2.52.

And the “glycan array binding signal (z-score)” value (Gal(a1-4)Gal(b1-4)Glc)?
Its value is -0.225.

And the “glycan array binding signal (z-score)” value (Gal(a1-4)Gal(b1-4)GlcNAc)?
Its value is -0.233.

And the “glycan array binding signal (z-score)” value [14]?
The value was -0.234.

What about the “glycan array binding signal (z-score)” value [15] of the same binder?
Its value is -0.234.

What about the “glycan array binding signal (z-score)” value (Gal(a1-4)GlcNAc) of the same binder?
Its value is -0.241.

And the “glycan array binding signal (z-score)” value (Gal(a1-6)Glc)?
Its value is -0.243.

What about the “glycan array binding signal (z-score)” value (Gal(b1-2)Gal) of the same binder?
The value was -0.239.

And the “glycan array binding signal (z-score)” value (Gal(b1-3)Gal)?
Its value is -0.24.

And the “glycan array binding signal (z-score)” value (Gal(b1-3)Gal(b1-4)GlcNAc)?
The value was -0.241.

What about the “glycan array binding signal (z-score)” value (Gal(b1-3)GalNAc) of the same binder?
The value was -0.242.

What about the “glycan array binding signal (z-score)” value [16] of the same binder?
The value was -0.244.

What about the “glycan array binding signal (z-score)” value [17] of the same binder?
The value was -0.235.

And the “glycan array binding signal (z-score)” value (Gal(b1-3)GalNAc(b1-3)Gal)?
Its value is -0.241.

What about the “glycan array binding signal (z-score)” value [18] of the same binder?
The value was -0.24.

And the “glycan array binding signal (z-score)” value [19]?
The value was -0.239.

And the “glycan array binding signal (z-score)” value [20]?
Its value is -0.241.

What about the “glycan array binding signal (z-score)” value (Gal(b1-3)GlcNAc) of the same binder?
Its value is -0.23.

What about the “glycan array binding signal (z-score)” value [21] of the same binder?
Its value is -0.245.

And the “glycan array binding signal (z-score)” value [22]?
The value was -0.24.

And the “glycan array binding signal (z-score)” value (Gal(b1-3)GlcNAc(b1-2)Man)?
Its value is -0.236.
